Experiments:
Details in all cases: 72 h
[1] = test system: Caco-2; experiment: cell viability relative to DMSO; higher = less toxic
[2] = test system: Calu-3; experiment: as above
[3] = test system: HepG2; experiment: as above
[4] = test system: U2OS; experiment: as above
[5] = test system: Vero E6; experiment: as above
[6] = test system: HepG2; experiment: relative viability EC50 (midpoint between 100% and the lowest measured viability); higher = less toxic
[7] = test system: Caco-2; experiment: drug sensitivity score (DSS) for viability; higher = more toxic; extreme values may be limits of the assay
[8] = test system: Calu-3; experiment: as above
[9] = test system: HepG2; experiment: as above
[10] = test system: U2OS; experiment: as above
[11] = test system: Vero E6; experiment: as above

Cc1ccc(C(=O)NCCCCCC(=O)Nc2ccccc2N)cc1 [RG2833]
cell viability [%]
Details | [1] | [2] | [3] | [4] | [5]
1 nM | 96.5 | 102 | 98.3 | 91.3 | 101
10 nM | 96.4 | 105 | 95.1 | 100 | 94.9
100 nM | 101 | 97.7 | 90.5 | 98.6 | 91.8
1000 nM | 105 | 89.7 | 85 | 93.3 | 91.3
10000 nM | 65.8 | 50.5 | 43.2 | 53.6 | 63.4

Details | drug sensitivity score | relative viability EC50 [nM]
[6] | – | 1620
[7] | 1.3 | –
[8] | 4.3 | –
[9] | 5 | –
[10] | 3.5 | –
[11] | 2.9 | –
